# From article PMC6919601, “Identification of Plasmodium dipeptidyl aminopeptidase allosteric inhibitors by high throughput screening” (PLoS ONE, 2019)
# The whole screen tested about 110,000 compounds, of which about 230 (0.21%) showed an effect of 50% or more. Some of the results follow.
# Biological target: DPAP1 (Plasmodium falciparum, UniProt Q8IIJ9)
# Assay: primary screen, percent inhibition; read by cleavage of a fluorogenic dipeptide substrate; higher = more effect of the substance
# Design: species or system P. falciparum D10 trophozoite lysates; single well
# 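Also: 30 min substrate incubation versus DMSO and 10 µM JCP410 controls.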
# Sequence of DPAP1 (Q8IIJ9 whole entry, looked up): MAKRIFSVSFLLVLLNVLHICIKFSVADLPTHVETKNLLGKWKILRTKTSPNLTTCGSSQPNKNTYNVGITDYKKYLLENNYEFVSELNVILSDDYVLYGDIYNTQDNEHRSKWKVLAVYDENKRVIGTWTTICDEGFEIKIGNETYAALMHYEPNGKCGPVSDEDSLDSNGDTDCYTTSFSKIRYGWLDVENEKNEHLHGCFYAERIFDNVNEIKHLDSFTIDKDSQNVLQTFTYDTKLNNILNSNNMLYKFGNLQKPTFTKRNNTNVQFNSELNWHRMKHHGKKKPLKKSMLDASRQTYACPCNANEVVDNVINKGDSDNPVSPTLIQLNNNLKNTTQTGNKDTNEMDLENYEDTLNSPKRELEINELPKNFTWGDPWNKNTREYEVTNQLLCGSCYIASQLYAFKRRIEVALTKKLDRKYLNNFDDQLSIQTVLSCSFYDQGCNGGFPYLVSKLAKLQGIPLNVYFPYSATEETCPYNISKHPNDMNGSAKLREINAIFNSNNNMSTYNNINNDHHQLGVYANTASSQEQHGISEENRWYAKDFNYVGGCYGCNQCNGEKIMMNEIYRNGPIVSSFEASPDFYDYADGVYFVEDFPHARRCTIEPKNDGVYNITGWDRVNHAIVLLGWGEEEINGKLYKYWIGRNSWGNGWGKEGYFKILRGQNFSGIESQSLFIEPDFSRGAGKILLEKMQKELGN
row,Compound,% Inhibition @ 10 uM [%]
1,O=S(=O)(Nc1nc2c(s1)CCCC2)c1ccc(F)cc1,-10.7
2,CSc1ncc(-n2c(-c3ccccc3)cs/c2=N\C(=O)c2ccccc2)cn1,-4.18
3,COC(=O)c1ccc(Oc2nc(C)cc(N)n2)cc1,-2.87
4,COc1ccc(NC(=O)C2CC2(c2ccc(C)cc2)c2ccc(C)cc2)cc1 (centres unmarked),3.32
5,CC(C)CC1=NC(C(F)(F)F)(C(F)(F)F)N=C(N2CCCCC2)O1,4.94
6,O=C1/C(=C/c2ccco2)CCc2ccccc21,-2.95
7,Nc1ncnc2c1nc(SCCO)n2Cc1ccccc1,-0.45
8,Cc1sc2c(c1C)c(=O)n(CCc1ccccc1)c(=O)n2Cc1cc(=O)n2ccccc2n1,1.76
9,CCOC(=O)c1noc2ncnc(N(Cc3ccco3)C3CCCCC3)c12,4.48
10,Cc1noc2ncnc(NCCN3CCC(C)CC3)c12,1.06
11,CCOc1cc(C2C3=C(O)CCCC3=NC(C)=C2C(=O)N2CCOCC2)ccc1O (centres unmarked),1.86
12,O=C(NCC1CCCO1)C1CCN(C(=O)c2cnn(-c3ccccc3)c2-n2cccc2)CC1 (centres unmarked),4.76
13,Fc1ccc(CNc2ccccn2)cc1,-0.551
14,CCO/C(O)=C/C(C)=N/c1nc2ccccc2s1,-0.148
15,O=C(Nc1ccc(N2C(=O)c3cccnc3C2=O)cc1)c1ccco1,-2.32
16,CN1CCN(S(=O)(=O)c2ccccc2)CC1,-0.127
17,CCN(CC)S(=O)(=O)N1CCC(C(=O)N2CCC3(CC2)OCCO3)CC1,-4.06
18,CCCOc1ccc(N2C(=O)CC(N3CCC(C(=O)O)CC3)C2=O)cc1 (centres unmarked),-2.63
19,CCC[C@H](NC(=O)[C@@H](CC(C)C)NC(=O)c1ccc(N2CCN(C)CC2)cc1)C(=O)c1nnc(-c2ccccc2OC)o1,-8.26
20,CC[C@H](NC(=O)[C@H](CC(C)C)NC(C)=O)C(=O)c1nc2ccccc2o1,1.35
21,OCCC1CCCCN1C1CCC(c2ccccc2)CC1 (centres unmarked),1.57
22,Oc1nc(-c2ccccc2)cc(-c2ccccc2O)n1,0.215
23,COc1ccc(NC(=O)c2cccnc2Cl)cc1,25.9
24,CCOC(=O)C1CCN(Cc2cccc(Cl)c2)CC1,6.06
25,CCC(C)NC(=O)c1ccc(CS(=O)(=O)Cc2cccc(C)c2)o1 (centres unmarked),-1.79

row,Compound,% Inhibition @ 10 uM [%]
1,Cc1ccc(-c2noc(CSc3nc(C)cc(O)n3)n2)cc1,-1.11
2,CN1CCN(Cc2cccc(Br)c2)CC1,-3.13
3,Cc1ccc2c(c1)-c1cc(C)nn1C(c1ccccc1)N2 (centres unmarked),-8.41
4,O=C(NCc1ccc2c(c1)OCO2)C1CCN(c2nc3cc(Cl)ccc3s2)CC1,1.16
5,COc1cccc(C2C(C#N)=C(N)Oc3[nH]nc(-c4cc(C)sc4C)c32)c1 (centres unmarked),-0.958
6,CCOC(=O)N1CCC(NC(=O)Cn2ncc3c2-c2cc(C)ccc2OC3)CC1,-2.53
7,CC(=O)NS(=O)(=O)c1ccc(NC(=O)CCC2CCCCC2)cc1,-2.19
8,CCN(Cc1ccccc1)C(=O)C1CCN(S(=O)(=O)c2ccc3nc(O)ccc3c2)CC1,-4.68
9,N#CC1=C(N)Oc2c(O)cc3ccccc3c2C1c1cccc(Cl)c1 (centres unmarked),2.92
10,CC(=O)C1=C(O)C(=O)N(c2ccc(C)c(Br)c2)C1c1cccc(F)c1 (centres unmarked),3.53
11,CCCCn1c2ccccc2n2cc(CN(C)C34CC5CC(CC(C5)C3)C4)nc12,-0.828
12,CC(C)(C)OC(=O)N1CCC(c2c(C(=O)NCc3ccc(F)cc3)cnn2-c2cccc(F)c2)CC1,-5.38
13,COc1ccc(C(=O)N/C(=C\c2ccco2)C(=O)NCc2cccnc2)cc1,-0.178
14,CCOC(=O)c1c(C)sc2c1OC(N)=C(C#N)C2c1cccc(F)c1 (centres unmarked),-3.34
15,COc1ccccc1/N=C1\SC(C(=O)Nc2ccccc2F)CC(=O)N1C (centres unmarked),-1.37
16,CCO/C(O)=C1\Cn2ncnc2N=C1C,-1.68
17,COc1ccc(NC(=O)COc2ccc(C)cc2C)cc1,-2.32
18,COc1cccc(NC(=O)CSc2nc3ccccc3[nH]2)c1,-5.07
19,CCOC(=O)C1=CN(C)C=C(C(=O)OCC)C1c1ccc(OC)c(O)c1,-1.48
20,FC(OC(F)(F)F)c1nc2ccccc2[nH]1 (centres unmarked),-1.86
21,CCOC(=O)c1c(C)[nH]c(C)c1S(=O)(=O)N1CCC(C(=O)N2CCn3c2nc2ccccc23)CC1,-0.695
22,CCN(CC)CCNC(=O)C1CCCN(c2nnc(C)c3c(C)n(-c4ccccc4)nc23)C1 (centres unmarked),1.57
23,CCC(=O)CC(Sc1cc(=O)oc2ccccc12)c1ccccc1 (centres unmarked),3.06
24,COc1cc(/C=c2\s/c(=C/C(=O)c3ccc(C)cc3)[nH]c2=O)ccc1O,2.16
25,OC(CN1CCCc2ccccc21)Cn1c2ccccc2c2ccccc21 (centres unmarked),1.23

row,Compound,% Inhibition @ 10 uM [%]
1,COc1ccc(CSc2nnc(C)n2N)cc1,-1.26
2,O=S1(=O)C(/C=N/Cc2ccc3c(c2)OCO3)=C(O)c2sccc2N1Cc1ccc(F)cc1,0.886
3,CCOC(=O)C1=C(Cc2ccc(Cl)cc2)C(=O)c2ccccc2C1=O,3.74
4,C=CCn1c(S)nnc1-c1ccccc1,-5.11
5,CC(C)(C)c1cc(C(=O)O)c(C(C)(C)C)s1,-1.04
6,CCn1c2ccccc2c2ccc(C3C(C#N)=C(N)OC4=C3C(=O)CCC4)cc21 (centres unmarked),-6.51
7,O=C(NCCSCc1ccccc1)c1ccc(CN2CCOCC2)cc1,4.65
8,N#CCNC(=O)c1nn2c(C(F)(F)F)cc(-c3cccs3)nc2c1Br,-2.67
9,O=C1c2ccccc2C(=O)N1Cc1cccnc1,-0.171
10,CC1(C)CC(=O)C2=C(C1)OC(N)=C(C#N)C2c1ccco1 (centres unmarked),-0.197
11,O=C(NCc1ccccc1)c1cc2nc(-c3cccs3)cc(C(F)(F)F)n2n1,-3.27
12,Cc1c(CN2CCN(c3ccc([N+](=O)[O-])cc3)CC2)c(=O)n(-c2ccccc2)n1C,-2.02
13,Cc1ccc(Cc2c(C)nc3c(C(=O)NC4CCCc5ccccc54)cnn3c2C)cc1 (centres unmarked),2.79
14,CC1CC(C)CN(C(=O)Cn2ncc3ccc(Cl)cc32)C1 (centres unmarked),0.596
15,CO/C(O)=C1/C(C)=NC2=C(C(=O)CC(C)(C)C2)C1c1ccc(Cl)cc1 (centres unmarked),-1.56
16,Cc1nc2c(c(C)nn2C)c(C)c1CCC(=O)NCc1ccc(Cl)cc1,-4.24
17,Cc1ccc(S(=O)Cc2nc(-c3ccc(C(=O)NC4CCCC4)cc3)oc2C)cc1 (centres unmarked),-2.4
18,CC1(C(=O)O)CCC(C(=O)Nc2ccc(Nc3ccccc3)cc2)C1(C)C (centres unmarked),-0.0217
19,CC1=C(C)CC(C(=O)Nc2ccc(C)c(C)c2)C(C(=O)O)C1 (centres unmarked),-3.87
20,O=[N+]([O-])c1ccc(S(=O)(=O)N2CCN(c3cccc(Cl)c3)CC2)cc1,-3.26
21,Cc1ccc2c(c1)-c1onc(C(=O)Nc3cccc(C)n3)c1CO2,1.14
22,Cc1cc(C(=O)NCc2ccccc2Cl)c2c(C)nn(-c3ccccc3Cl)c2n1,3.55
23,N#CCNC(=O)C(Cc1ccc(OC(=O)OCc2ccccc2)cc1F)NC(=O)OCc1ccccc1 (centres unmarked),-1.41
24,CC12CCCCN1CCCc1c2[nH]c2ccccc12 (centres unmarked),0.746
25,COc1ccc(-n2nc3c(N4CCC(C(=O)NC(C)c5ccccc5)CC4)nnc(C)c3c2C)cc1 (centres unmarked),-0.518

row,Compound,% Inhibition @ 10 uM [%]
1,CC(C)c1ccc(-c2c(N(C)C3CCCCC3)c(=O)c2=O)cc1,2.78
2,CC(C)CC(C(=O)NCC#N)c1cccc(-c2ccc(S(=O)(=O)NC(C)CN(C)C)cc2)c1 (centres unmarked),1.7
3,Cc1ccccc1Nc1nc(N)c2ccccc2n1,-0.872
4,O=C(Nc1nc2ccccc2n1CCN1CCOCC1)C(F)(F)F,7.15
5,COc1cccc(OC)c1C(=O)Nc1cccc(C(C)=O)c1,-1.42
6,CC(C)(C)C(=O)c1cn(CC(=O)NCCOc2ccc(Cl)cc2)c2ccccc12,1.72
7,Cc1ccc(S(=O)(=O)Nc2ccc(S(=O)(=O)N3CCCC3)cc2)cc1,1.64
8,Cc1ccc(S(=O)(=O)NC(C)C(=O)Nc2ccc(OCc3ccccc3)cc2)cc1 (centres unmarked),9.79
9,C=CCNC(=O)CN(Cc1ccc(Cl)cc1)S(=O)(=O)c1ccc(Br)cc1,-3.45
10,O=C(Cn1nc(Cc2ccncc2)c2ccccc2c1=O)NCCN1CCOCC1,0.44
11,COc1ccc(/C(O)=C/C=N/c2cccc(C)c2C)cc1OC,3.05
12,COc1ccc(N(CC(=O)Nc2ccc(C(C)C)cc2)S(C)(=O)=O)cc1,-0.185
13,Cc1csc(NC(=O)c2c(-c3c(Cl)cccc3Cl)noc2C)n1,0.408
14,COc1cc(C(=O)N2CCN(Cc3ccc4ccccc4c3)CC2)cc(OC)c1OC,-5.85
15,COc1ccc(C2C3=C(O)CCCC3=Nc3nc(SC)nn32)cc1Br (centres unmarked),6.36
16,O=C(CSc1nnc(CCCO)n1-c1ccccc1)NCC(=O)c1ccccc1,4.57
17,O=C1C2C(c3ccccc3)C=CC(c3ccccc3)C2C(=O)N1Cc1ccccc1 (centres unmarked),-3.48
18,O=C(Nc1ccc2nc(S)sc2c1)c1ccccc1,-0.0648
19,CCn1c(N2CCN(C(C)=O)CC2)nc2c1c(=O)[nH]c(=O)n2C,5.53
20,CCOc1ccc(CNC(=O)C2CCN(S(=O)(=O)N(CC(C)C)CC(C)C)CC2)cc1OC,0.514
21,CCOc1ccc(C(=O)Nc2cc3c(cc2C(C)=O)OCO3)cc1,2.03
22,Fc1ccccc1-n1cc(-c2ccccc2)nc1S,45.3
23,CCCC1CC(c2csc(N)n2)CCO1 (centres unmarked),-5.47
